Results as given in article PMC4336329 (PLoS ONE, 2015).
Among all 310,000 compounds or so, about 14,000 (4.5%) showed an effect of 50% or more. Effects have a minus sign here. This is one part of the list.

target: human ether-à-go-go-related gene (hERG) potassium channel (human, UniProt Q12809); assay: primary screen, population patch clamp on CHO cells stably expressing hERG
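Further: peak tail current of the secondary pulse compared with the same well before compound.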

Sequence of human ether-à-go-go-related gene (hERG) potassium channel (Q12809 whole entry, looked up): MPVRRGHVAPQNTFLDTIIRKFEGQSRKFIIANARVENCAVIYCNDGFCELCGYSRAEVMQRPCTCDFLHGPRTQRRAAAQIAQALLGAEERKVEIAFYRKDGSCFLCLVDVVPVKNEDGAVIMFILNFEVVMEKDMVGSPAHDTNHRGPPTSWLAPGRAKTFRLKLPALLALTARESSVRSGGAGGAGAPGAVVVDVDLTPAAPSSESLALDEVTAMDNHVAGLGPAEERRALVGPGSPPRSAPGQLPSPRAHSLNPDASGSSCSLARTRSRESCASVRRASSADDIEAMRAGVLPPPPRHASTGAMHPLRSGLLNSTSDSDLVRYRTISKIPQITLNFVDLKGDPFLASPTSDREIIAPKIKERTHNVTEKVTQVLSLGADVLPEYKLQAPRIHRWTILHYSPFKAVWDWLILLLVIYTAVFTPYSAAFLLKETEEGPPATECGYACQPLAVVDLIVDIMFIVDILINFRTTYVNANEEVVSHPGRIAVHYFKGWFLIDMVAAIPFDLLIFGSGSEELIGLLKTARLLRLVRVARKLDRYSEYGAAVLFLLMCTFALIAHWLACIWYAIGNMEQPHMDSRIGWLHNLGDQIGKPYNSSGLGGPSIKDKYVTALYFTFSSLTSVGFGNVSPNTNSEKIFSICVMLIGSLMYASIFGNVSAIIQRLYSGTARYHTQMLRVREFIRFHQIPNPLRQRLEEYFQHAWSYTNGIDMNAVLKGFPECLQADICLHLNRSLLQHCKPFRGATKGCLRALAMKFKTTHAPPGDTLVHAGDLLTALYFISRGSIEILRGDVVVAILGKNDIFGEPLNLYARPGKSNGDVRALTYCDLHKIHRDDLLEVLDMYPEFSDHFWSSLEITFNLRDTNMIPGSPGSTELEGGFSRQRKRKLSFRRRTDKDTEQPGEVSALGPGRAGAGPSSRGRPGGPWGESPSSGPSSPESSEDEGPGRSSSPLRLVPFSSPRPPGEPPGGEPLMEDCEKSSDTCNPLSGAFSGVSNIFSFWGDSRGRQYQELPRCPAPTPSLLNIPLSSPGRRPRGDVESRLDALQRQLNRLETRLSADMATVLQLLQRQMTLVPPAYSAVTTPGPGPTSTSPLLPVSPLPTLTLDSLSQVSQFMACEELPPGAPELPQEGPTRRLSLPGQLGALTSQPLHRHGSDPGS

Row | SMILES | hERG current change (%, negative = inhibition) at 10uM
1 | COc1ccc(CCNC(=O)CCC(=O)N2CCOc3ccc(Cl)cc32)cc1OC | -20.2%
2 | COc1ccc(OC)c(S(=O)(=O)ON2C(=O)c3ccccc3C2=O)c1 | 6.82%
3 | CC(C)CCN1C(=O)c2ccc(-c3nc4ccccc4c(=O)o3)cc2C1=O | 2.87%
4 | O=C(NCC(c1ccc(F)cc1)N1CCOCC1)c1cccc(Br)c1 (centres unmarked) | 3.1%
5 | CC(=O)Oc1ccc(N2C(=O)C3C4C=CC(C5CC45)C3C2=O)cc1[N+](=O)[O-] (centres unmarked) | -2.81%
6 | O=C(CN1C(=O)NC2(CCCCC2)C1=O)N1CCc2ccccc2C1 | 4.28%
7 | O=S(=O)(c1ccc(Cl)s1)N1CCC2(CC1)OCCO2 | -0.289%
8 | Cc1cc(NC(=O)CSc2nc3ccsc3c(=O)n2CCCCC(=O)O)no1 | -18%
9 | CCCCc1cc(=O)oc2cc(OCC(=O)NCCN3CCOCC3)ccc12 | -23.1%
10 | CS(=O)(=O)c1ccc(Cl)c(NC(=O)Cc2c(Cl)cccc2Cl)c1 | 6.61%
11 | CCOC(=O)c1cc(Sc2ccccc2N)cc(C(=O)OCC)n1 | 6.85%
12 | COc1ccc(-c2cc(=O)[nH][nH]2)cc1OC | -2.84%
13 | O=C(CSC1c2ccccc2-c2ccccc21)N/N=C/c1ccccc1 | 21.8%
14 | COc1ccc(Cc2nnc(SCC(=O)c3c(N)n(C4CC4)c(=O)[nH]c3=O)o2)cc1 | 10.9%
15 | O=C(CC(C(=O)O)c1ccc(Cl)cc1)c1ccccc1 (centres unmarked) | 10.1%
16 | O=C(CC(c1ccccc1)c1cc(Cl)ccc1O)N1CCCC1 (centres unmarked) | -17.5%
17 | COc1ccc(NC(=O)CN(C)C(=O)c2cccc(NS(=O)(=O)c3ccc(Br)cc3)c2)cc1 | -16.1%
18 | O=c1c2ccccc2cnn1-c1ccc(Br)cc1 | -2.06%
19 | CCCc1nc2oc3c(NCCOCCO)ncnc3c2c2c1COC(C)(C)C2 | -2.6%

Row | SMILES | hERG current change (%, negative = inhibition) at 10uM
20 | Cc1ccc(NC(=O)CCc2nnc3ccc(N4CCOCC4)nn23)cc1C | -21.7%
21 | COc1cccc(-c2cn3nc(C)c(C)nc3n2)c1 | 4.91%
22 | O=C(CCc1ccccc1)NNC(=O)Cc1ccccc1 | 33.2%
23 | CC(C(=O)Nc1ccc(F)c(F)c1F)N(C)Cc1cccs1 (centres unmarked) | -1.07%
24 | CC(C)OCc1c(C(=O)Nc2nccs2)oc2ccccc12 | 10.5%
25 | COc1ccc(C(=O)OCC(=O)NC(=O)CCSc2ccccc2)cc1 | 3.23%
26 | CC(NS(=O)(=O)c1cccc(S(=O)(=O)c2ccccc2)c1)C(=O)O (centres unmarked) | 4.32%
27 | CCOC(=O)C1=C(CN2CCN(C(=O)c3ccco3)CC2)NC(=O)NC1c1ccc(OC(C)C)cc1 (centres unmarked) | -69.3%
28 | O=C(O)C(Cc1ccc(O)cc1)N1C(=O)C2CCCCC2C1=O (centres unmarked) | 36.8%
29 | Cc1cc(CNC(=O)C2CCC(=O)N(Cc3ccccc3F)C2)nn1C (centres unmarked) | 6.4%
30 | Cc1cc(C)n(-c2nc(NCc3cccnc3)c3c4c(sc3n2)COC(C)(C)C4)n1 | -27.4%
31 | O=C(c1ccoc1)N1CCCC(CO)(CCCc2ccccc2)C1 (centres unmarked) | -16.5%
32 | CCOc1nc(NCCN2CCOCC2)nc(Nc2ccc([N+](=O)[O-])cc2)n1 | -93.1%
33 | CC(C)c1nc2cc(C(=O)N3CCNC(=O)C3c3ccc(F)cc3)ccc2o1 (centres unmarked) | 11.1%
34 | Cc1nc2ccc(F)cc2cc1C(=O)NC(C)C | 5.63%
35 | CC(C)CCN(C(=O)Cc1ccc(Cl)c(Cl)c1)c1c(N)n(Cc2ccccc2)c(=O)[nH]c1=O | -0.786%
36 | [O-][n+]1onc2c1CCC1N(O)C(c3ccccc3)CC21O (centres unmarked) | 14.7%
37 | COc1ccc(S(N)(=O)=O)cc1C(N)=O | 2.96%
38 | O=C1Nc2ccccc2C12OCCO2 | 13%

Row | SMILES | hERG current change (%, negative = inhibition) at 10uM
39 | N/C(=N\OC(=O)Nc1ccc(Cl)cc1)c1ncc(C(F)(F)F)cc1Cl | -0.246%
40 | Cn1nnc2cc(C(=O)N3CCC(c4ccccc4)C3)ccc21 (centres unmarked) | -8.23%
41 | C[NH+](C)CCOC(=O)c1ccc(COc2ccccc2Br)o1.[Cl-] | -44%
42 | CC1(C)Cc2cccc(OCC(=O)NCCc3ccccc3)c2O1 | -5.13%
43 | CCC(C(=O)N1CCOCC1)n1nc(C)c2sc3ccccc3c2c1=O (centres unmarked) | 29.7%
44 | Cc1cccn2c(=O)c3cc(C#N)c(=NC(=O)c4cccs4)n(CC(C)C)c3nc12 | -11.5%
45 | Cc1cccc(NC(=O)C(CC(C)C)NC(=O)C2CCC(C)CC2)n1 (centres unmarked) | -17.5%
46 | NS(=O)(=O)c1ccc(CCNC(=O)COC(=O)CN2C(=O)C3CCCCC3C2=O)cc1 (centres unmarked) | 18.4%
47 | COc1ccc(NC(=O)c2cc(S(=O)(=O)N3CCCC3)ccc2C)cn1 | -4.2%
48 | CCCc1cc(=O)[nH]c(SCC(=O)N2CCC(C(=O)OCC)CC2)n1 | 2.17%
49 | O=C1C=C(c2cccc(CO)c2)C[C@@H](c2ccc(Cl)cc2)C1 | -54.5%
50 | CC(=O)Nc1ccc(SC[C@H](C)CN2CC[C@H](C(C)(C)C)CCC2=O)cc1 | 0.892%
51 | CC(=O)Nc1c(C)ccc(S(N)(=O)=O)c1C | 3.63%
52 | O=C(O)c1ccccc1NCN1C(=O)C2CC=C(Cl)CC2C1=O (centres unmarked) | -4.67%
53 | O=C(NCC(c1ccco1)N1CCCC1)c1ccccc1F (centres unmarked) | 3.76%
54 | CCC(C)NC(=O)CSc1nnc(-c2ccoc2C)n1CC1CCCO1 (centres unmarked) | -0.273%
55 | CC(=O)c1ccc(OCc2cc(C(=O)N3CC4C[C@@H]5CC3C[C@H](C4)C5)no2)cc1 | -23.2%
56 | O=C(/C=C/c1cccs1)Nc1ccc(N2CCOCC2)c(S(=O)(=O)Nc2ccccc2Cl)c1 | 10.3%
